The text below walks through data of the RNAGym collection of RNA variant scans (doi:10.7554/elife.90254).

The source gives no read counts; variants with many changes may rest on few reads.

B1: LINE1-full (parent)
chain: UACGUAGGUGGUUUUCCCCUGAUAGUGCUAAGGGGGCCUGGAAGUUUGGACUGGGCAGAGCUCAACACAGCGUGGCAAAGUGGCUGUGGCUAGACUGCCUCUCUGGAUUCCUCGUCACUCAGCAGGGCAUCUCUGAGAGAAAUGCC

Variants of B1 are the subject of the data set. As to the kind of experiment: self-cleavage, relative activity (ratio to wild type); higher = more cleavage; in vitro, sequencing; the parent is a self-cleaving ribozyme.
In the case of UGCGUAGGUGGAUUUCCCCUGACAGUGCUAAGGGGGCCUGGAAGUUUGGACUGGGCAGAGCUCAACACAGCAUGGCAAAGUGGCUGUGGCUAGACUGCCUCUCUGGAUUCCUCGUCACUCAGCAGGGCAUCUCUGAGAGAAAUGCC, the self-cleavage was 1.37.
Regarding UGCGUAGGUGGUUCUCCCCUGAUAGUGCUUAGGGGGCCUGGAAGUUUGGGCUGGGCAGAGCUCAACACAGCGUGGCAAAGGGGCUGUGGCUAGACUGCCUCUCUGGAUUCCUCGUCACUCAGCAGGGCAUCUCUGAGAGAAAUGCC, the self-cleavage is 0.
Under UGCGUAGGUGGUUCUCCCCUGAUAGUGCUAAGGGGGCCUGGAAGUUUGGACUGGGCAGAGCUCAACACAGCGUGGCAUAGUGGCUGUGGCUAGACUGCCUCUCUGGGUUCCUCGUCACUCAGCAGGGCAUCUCUGAGAGAAAUGCC stands 0.79; under UGCGUAGGCGGUUUUCCCCUGAUAGUGCUAAGGGGGCCUGGAAGCUUGGACUGGGCAGAGCUCAACACAGCGUGGCAAAGUGGCUGUGGCUAGACUGCCUCUCUGGAUUCCUCGUCACUCAGCAGGGCAUCUCUGCGAGAAAAGCC, 0.61; under UGCGUAGGUGGUUCUCCCCUGUUAGUGCUAAGGGGGCCUGGAAGUUUGGACUGGGCAGAGCUCAACACAGCGUGGCAAAGUGGCUGUGGCUAGACUGCCUCCCUGGAUUCCUCGUCACUCAGCAGGGCAUCGCUGAGAGAAAUGCC, 0.71.
For UGCGUAGGUGGUUAUCCCCUGAUAGUGCCAAGGGGGCCUGGAAGUUUGGACUGGGCAGAGCUCAACACAGCGUGGCAAAGUGGCUGUGGCCAGACUGCCUCUCUGGAUUCCUAGUCACUCAGCAGGGCAUCUCUGAGAGAAAUGCC, the self-cleavage came to 1.4.
For UGCGUAGGUGGUUUUCCCCUGAUAGUGCUAAGGGGGCCUGGAAGUUUGGACUGGGCAGAGCUCAACACAGCAUGGCAAAGUGGCUGUGGCUAGACUGCCUCUCUGGAUUCCUCGUCACUCAGCAGGGCAUCUCUGAGAGAAGUGCC the value was 0.47; for UGCGUAGGAGGUCUUCCCCUGAUAGUGCUAAGGGGGCCUGGAAGUUUGGACUGGGCAGAGCUCAACACAGCGUGGCAAAGUGGCCGCGGCUAGACUGCCUCUCUGGAUUCCUCGUCACUCAGCAGGGCAUCUCUGAGAGAAAUGCC, 1.84; for UGCGUAGGUGGUUCUCCCCUGAUAGUGCUAAGGGGGCCUGGAAGUUUGGACUGGGCAGAGCUCAACACAGCGUGGCAAAGUGGCUGUGGCUAGGCUGCCUCUCUGGAUUCCUCGUCACUCAGCAGGGCAUCUCUGAGAGAAAUGCC, 0.45.
In the case of UGCGUAGGUGGUCUUCCCCUGAUAGUGCUAAGGGGGCCUGGAAGUUUGGACUGGGCAGAGCUCAACACGGCGUGGCAAAGUGGCUGUGGCUAGACUGCCUCUCUGGAUUCCUCGUCACUCAGCAGGGCAUCUCUGAGAGAAAUGCC, the self-cleavage stood at 0.24.
UGCGUAGGUGGUUUUCCCCUGAUAGUGCUAAGGGGGCCUGGAAAUUUGGACUGGGCAGAGCUCAACACAGCGUGGCAAAGUGGCUGUGGCUAGACUGCCUCUCAGGAUUCCUCGUCCCUCAGCAGGGCAUCUCUGAGAGAAAUGCC: the self-cleavage was 0.86.
On to UGCGUAGGUGGCUUUCCCCUGAUAGUGCUAAGGGGGCCUGGAAGUUCGGACUGGGCAGAGCUCAACACAGCGUGGCAAAGUGGCUGUGGCUAGACUGCCUCUCUGGAUUCCUCGUCACUCAGCAGGGCAUCUCUGAGAGAAAUGCC, for which the self-cleavage amounted to 0.24.
With UGCGUAGGUGGCUUUCCCCUGAUAGUGCUAAGGGGGCCUGGAAGUUUGGACUGGGCAGAGCUCAACACAGCGUGGCAAAGUGGCUGUGGCUAGACUGCCUCUCUGGAUUCCUCGUCACCCAGCAGGGCAUCUCUGAGAGAAAUGCC, the self-cleavage turned out to be 1.75.
Take UGCGCAGGUGGUUUUCCCCUGAUAGUGCUAACGGGGCCUGGAAGUUUGGACUGGGCAGAGCUCAACUCAGCGUGGCAAAGUGGCUGUGGCUAGACUGCCUCUCUGGACUCCUCGUCACUCCGCAGGGCAUCUCUGAGAGAAAUGCC: the self-cleavage was found to be 0.61.
In the case of UGCGUAGGUGGUCUUCCCCUGAUAGUGCCAAGGGGGCCUGGAAGUUUGGACUGGGCAGAGCUCAACACAGCGAGGCAGAGUGGCUGUGGCUAGACUGCCUCUCUGGAUUCCUCGUCACUCAGCAGGGUAUCUCUGAGAGAAAUGCC, the self-cleavage was found to be 0.7.
Under UGCGUAGGUGGUUUUCCCCUGAUAGUGCUAAGGGGGCCUGGAAGUUUGGACUGGGCAGAGCUCAACACAGCGUGGCAAAGUGGCUGUGGCUAGACUGCCUCUCUGGAUUCCUCGUCACUCAGCAGGGCAUCUCUGAUAGGAAAGCC stands 2.15; under UGCGCAGGUGGUUUUCCCCUGAUAGUGCUAUGGGGGCCUGGAAGUUUGGACUGGGCAGAGCUCAACACAGCGUGGCUAAGUGGCUGAGGCUAGACUGCCUCUCUGGAUUCCUCGUCACUCAGCGGGGCGUCUCUGAGAGAAAUGCC, 0.48.
Consider UGCGUAGGUGGUUUUCCCCUGAUAGUGCUAAGGGGGCCUGGAAGUUUGGACUGGGCAGAGCUCAACACAGCGUGGCAAAGUGGCUGUGACUAGACUGCCUCCCUGGAUUCCUCGUCACUCAGCAGGGCAUCUCCGAGAGAAAAGCC, for which the self-cleavage came to 0.16.
As to UGCGUAGGUGGGUUCCCCCUGAUAGUGCUAAGGGGGCCUGGAAGUUUGGACUGGGCAGAGCUCAACACAGCGUGGCAAAGUGGCUGUGGCUAGUCUGCCUCUCUGGAUUCCUCGUCACUCGGCAGGGCAUCUCUGAGAGAAAUGCC, the self-cleavage was 0.84.
For UGCGUAGGUGGUUCUCCCCUGAUAGUGCUAAGGGGGCCUGGAGGUUUGGACUGGGCAGAGCUCAACUCAGCGUGGCAAAGUGGAUGUGGCUAGGCUGCCUCUCUGGAUUCCUCGUCACUCAGCAGGGCAUCUCUGAGAGAAAUGCC the value was 0.26; for UGCGUAGGUGGUCUUCCCCUGAUAGUGCUAAGGGGGCCUGGAAGUUUGGACUGGGCAGAGCUCAACACAGCGUGGCAAAGUGGCUGUGGCUAGACUGCCUCUCUGGACUCCUCGUCACUCAGCAGGGCUUCUCUGAGAGAAAUGCC, 1.11; for UGCGUAGGCGGUUUUCCCCUGAUAGUGCUAAGGGGGCCUGGAUGUUUGGACUGGGCAGAGCUCAACACAGCGUGGCAAAGUGGCUGUGGCUAGACUGCCUCUCUGGAUUCCUCGUCACUCAGCAGGGCAUCUCUGAGAGGAAUGCC, 1.15.
Under UGCGUAGGUGGUUAUCCCCUGAUAGUGCUAAGGGGGCCUGGAAGUUUGGACUGGGCAGAGCUCAACGCAGCGUGGCAAAGUGGCUGUGGCUAGACUGCCUCUCUGGAUUCCUCGUCGCUCAGCAGGGCAUCUCUGAGAGAAAUGCC stands 0; under UGCGUAGGUGGAUUUCCCCUGAUAGUGCUAAGGGGGCCUGGAAGUUUGGACUGGGCAGAGCUCAACACAGCGUGGCGAAGUGGCUGUGGCUAGACUGCCUCUCUGGAUUCCUCGUCACCCAGCAGGGCAUCUCUGAGAGAAAUGCC, 1.56; under UGCGUAGGUGGCUUUCCCCUGAUAGUGCCAAGGGGGCCUGGAAGUUUGGACUGGGCAGAGCUCAACACAGCGUGGCAAAGUGGCUGUGGCUAGACUGCCUCUCUGGAUUCCUCGUCACUCAGCAGGGCAUCUCUGAGAGGAAUGCC, 0.64.
With UGCGUAGGUGGUUUUCCCCUGAUAGUGCUAAGGGGGCCUGGAAGUUUGGACUGGGCAGAGCUCAACACAGCGUGUCAAAGUGGCUGUGGCUAGACUGCCUCUCUGGAUUCCUCGUCACUCAGCAGAGCAUCUCUGAGAGAAAUGCC, the self-cleavage is 0.66.
For UGCGUAGGAGAUUUUCCCCUGAUAGUGCUAAGGGGGCCUGGAAGUUUGGUCUGGGCAGAGCUCAACACAGCGUGGCAAAGUGGCUGUGGCUAGACUGCCUCUCUGGAUUCCCCGUCACUCAGCAGGGCAUCUCUGAGAGAAAUGCC the value was 0.69; for UGCGUAGGUGGUUCUCCCCUGAUAGAGCUAAGGGGGCCCGGAAGUUUGGACUGGGCUGAGCUCAACACAGCGUGGCAAAGUGGCAGUGGCUAGACUGCCUCUCUGGAUUCCUCGUCACUCAGCAGGGCAUCUCUGAGAGAAAUGCC, 0.18; for UGCGUAGGUGGAUUUCCCCUGAUAGUGCUAGGGCGGCCUGGAAGUUUGGACUGGGCAGAGCUCAACACAGCGUGGCAAAGUGGCUGAGGCUAGACUGCCUCUCUGGAUUCCUCGUCACUCAGCAGGGCAUCUCUGAGAGAAAUGCC, 0.35.
Under UGCGAAGGUGGUUUUCCCCUGAUAGUGCUAAGGGGGCCUGGAAGUUUGGACUGGGCAGAGCUCAACACAGCGUGGCAAAGUGGCUGUGGCUAGACUGCCUCUCUGGAUUCCUCGUCACUCAGCAGGGCAUCUCUGAGAGAAACGCC stands 0.41.
Turning to UGCGUAGGUGGUUUUCCCCUGAUAGUGCUAAGGGGGCCUGGAAGUUUGGACUGGACAGAGCUCAACACAGCGUGGCAAAGUGGCUGUGGCCAGACUGCCUCUCUGGAUUCCUCGUCACUCAGCAGGGCAUCUCUGAGAAAAAUGCC, the self-cleavage was 0.
Under UGCGUAGGUGGCUUUCCCCUGAUAGUGCUAAGGGGGCCCGGAAGUUUGGACUGGGCAGAGCUCAACACAGCGUGGCAAAGUGGCUGUGGCUUGACUGCCUCUCUGGAUUCCUCGUCACUCAGCAGGGCAUCUCUGAGAGAAAUGCC stands 0.66.
For UGCGUAGGUGGGUUUCCCCUGACAGUGCUAAGGGGGCCUGGAAGCUUGGUCUGGGCAGAGCUCAACACAGCGUGGCAAAGUGGCUGUGGCUAGACUGCCUCUCUGGAUUCCUCGUCACUCAGCAGGGCAUCUCAGGGAGAAAUGCC the value was 0.57.
Regarding UGCGUAGGUGGAUUUCCCCUGAUAGUGCUAAGGGGGCCUGGAAGUUUGGACUGGGCAGAGCUCAACGCAGCGUGGCAAAGUGGCUGUGGCUAGACUGCCUCUCUGGAUUCCUCGUCACUCAGCAGGGCAUCUCUGAGAGAAAUGCC, the self-cleavage is 0.57.
For UGCGUAGGUGGUAUUCCCCUGAUAGUGCUAAGGGGGCCUGGAAGUUUGGACUGGGCAGAGCUCAACACAGCGUGGCAAAGUGGCUGUGGCUAGACUGCCUCUCUGGAUUCCUCGCCACUCAGCAGGGCAUCUCUGAGAGAAAUGCC the value was 0.
On to UGCGAAGGUGGUUUUCCCCUGAUAGUGCUAAGGGGGCCUGGAAGUUUGGACUGGGCAGAGCUCAACACAGCGUGGCAAAGUGGCUGAGGCUAGACUGCCUCUCUGGAUUCCUCGUCACUCAGCAAGGCAUCUCUGAGAGAAAUGCC, for which the self-cleavage is 0.15.
For UGCGUAGGAGGUUUUCCCCUGAUAGUGCUAAGGGGGCUUGGAAGUUUGGACUGGGCAGAGCUCAACACAGCGUGGCAAAGUGGCUGUGGCUAGACUGCCUCUCUGCAUUCCUCGUCACUCAGCAGGGCAUCUCUGAGAGAAAUGCC the value was 0.65; for UGCGUAGGUGGUAUUCCCCUGAUAGUGCUAAGGGGGCCUGGAAGUUUGGACCGGGCAGAGCUCUACACAGCGUGGCGAAGUGGCUGUGGCUAGACUGCCUCUCUGGAUUCCUCGUCACUCAGCAGGGCAUCUCUGAGAGAAAUGCC, 0.34.
Turning to UGCGUAGGUGGUCUUCCCCUGAUAGUGCUAAGGGGGCCUGGAAGUUUGGACUGGGCAGAGCUCAACACAGCGUGGCAAAGUGGCUGUGGCUAGACUGCCCCUCUGGAUUCCUCGUCACUCAGCAGGGCAUCUCUGAGAGAAAUGCC, the self-cleavage was found to be 1.49.
